Laboratory results: the supplement of paper PMC10338343
± gives the standard deviation. This is a selection; strong and weak results do not stand in their true shares.

Each sequence was assayed on MIWI (PIWIL1) piRISC loaded with piRNA #1 (30 nt) (assay: pre-steady-state target cleavage rate (min^-1); MIWI and MILI are mouse PIWI proteins and EfPiwi is from a freshwater sponge; tags in brackets are library labels; higher = faster piRNA-guided slicing of the target). Settings: guide: piRNA #1 5'p-UGAGGUAGUAGGUUGUAUAGUAUCCAGAGG; auxiliary factor: 500 nM mouse GTSF1.
Method in brief: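 A transcribed, DNA-blocked target RNA library […] was incubated at 33 °C for 0–8 or 0–960 min with 1 nM active affinity-purified piRISC carrying one synthetic guide, in HEPES–potassium acetate buffer with or without 500 nM GTSF1 partner protein. Uncleaved targets were then sequenced and normalised to depth and to weakly complementary targets. Data from three trials were pooled, with k3 capped at 0.0001 min^-1, and a burst-and-steady-state fit yielded the pre-steady-state cleavage rate.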
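Further: 1 nM active piRISC with 0.1 nM target library at 33 °C single turnover.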

Sequence	pre-steady-state target cleavage rate
GGAGACCUAUGUAUGCAACCUACUACCUCA	0.0455 ± 0.0073
CCUCUGGAUACUAUACAAGCUACUACCUCA	1.46 ± 0.069
GCUCUGGUAUACUAUACAACCUACUACCUCA	1.97 ± 0.099
GGAGACCUAUGAAUACAACCUACUACCUCU [g2:g18:cont:t1U]	0.00362 ± 0.0034
GGAGAGGAUACUAUACAACCUACUACCCUCA	0.765 ± 0.072
GGACUGGAUACUAUACAACCAUCUACCUCA	0.0244 ± 0.0045
GGAGACCUAUCUAUACAGCCUACUACCUCA	0.14 ± 0.011
GGACUCCAUACUAUACAACCUACUACCUCA	1.67 ± 0.11
CCUCUGGAAUACUAUACAACCUACUACCUCA	2.19 ± 0.13
GGUCUGGAUACUAUACAACCUAGCUACCUCA	0.255 ± 0.021
GGACUGGAUUCUAUACAACGUACUACCUCA	0.966 ± 0.072
GGAGACCUAUCUACUACAACCUACUACCUCA	0.0246 ± 0.0058
GGAGACCUAACUAUACAACCUACUACCCUCA	0.732 ± 0.064
GGACUGGUUAGUAUACAACCUACUACCUCA	0.904 ± 0.12
GGACUGGAUACUUUACAACCUAGUACCUCA	0.218 ± 0.039
GGAGACCAUACUAUACAACGAUCUACCUCA	< 0.0001
GGACUCGAUACUAAACAACCUACUACCUCA	1.62 ± 0.12
GGAGACCUUACUAUUCAAGCUACUACCUCA	0.711 ± 0.05
GGAGACGAUACUUUACAAGCUACUACCUCA	0.987 ± 0.062
GGAGACCUAUGUAUACAACCUACUAUCUCA	0.00659 ± 0.0019

Sequence	pre-steady-state target cleavage rate
GGAGACCAUACUAAACAACCUACUACGUCA	0.626 ± 0.045
GGAGACCUAACUAAACAACCUACAACCUCA	0.0123 ± 0.0077
GGAGAGGUUACUAUACAACCUUCUACCUCA	0.46 ± 0.025
GCUCUGGAUACUAUACAACCUACUUCCUGA	0.346 ± 0.057
GGAGACCUUACUAUACAACCUACUUCCACA	0.13 ± 0.025
GGAGACCAUACUAUACAACCUUCUACGUCA	0.309 ± 0.039
CCUCUGGAUACUUUACAACGUACUACCUCA	0.921 ± 0.054
CCUCUGGAUACUACACAACCUACUACCUCA	1.97 ± 0.12
GGAGUGGAUACUAUUCAACCUACUACCACA	0.431 ± 0.039
GGAGACCAUACUAUACAACCUACCACCUCA	0.897 ± 0.049
GGAGACCAUACUAUACAACCUACUUACCUCA	1.45 ± 0.092
GGACUGGAUACUAUACAACCUACUACCUCG [g2:g27:cont:t1G]	1.01 ± 0.1
GGAGACGAUACUAUACUACCUUCUACCUCA	0.3 ± 0.021
GGAGUGGAAACUAUACAACCUACUUCCUCA	0.00741 ± 0.0026
GGAGACCUAACUCUACAACCUACUACCUCA	0.234 ± 0.047
CCUCUGGAUACUAUACAACCUAGAACCUCA	0.361 ± 0.046
GGAGACCUUACUAUACUACCUACUACCACA	0.385 ± 0.051
GGAGACGAUACUAUACAACCUACCUACCUCA	1.2 ± 0.064
GGAGUGGAUACUGUACAACCUACUACCUCA	1.48 ± 0.095
GGAGACCUAUCAUAUACAACCUACUACCUCA	0.109 ± 0.02
